The text below walks through data of the supplement of paper PMC3334620.

Over roughly 33,000 sequences, “E-score (-0.5 to 0.5)” has its median near -0.056; the highest 2% begin near 0.38. The list shows a part of the results.

This assay addresses Stb4 (UniProt P50104). Put plainly: PBM E-score (8-mer binding enrichment) (E-score (-0.5 to 0.5)); higher = stronger / more preferred TF binding; most listed sequences are background and not binding sites. Particulars: protein concentration: 200 nM; construct: GST-DNA-binding domain. The method in brief: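 GST-tagged yeast TFs (full-length or DNA-binding domain) were made by PURExpress in vitro transcription/translation and applied at about 100-200 nM to universal all-10-mer Agilent arrays. The arrays were made double-stranded by primer extension, on fresh or once-stripped slides. Bound protein was detected with fluorescent anti-GST, and scans were normalised with masliner. Each ungapped eight-base word, pooled with its reverse complement, received an E-score (modified Wilcoxon-Mann-Whitney statistic) from the Universal PBM Analysis Suite.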
As to AGCCACCA, the “PBM E-score” value is -0.194.
Consider ATATATAG, for which the “PBM E-score” value turned out to be 0.0925.
On to TCTAATAA, for which the “PBM E-score” value is -0.311.
On to ACGTATGC, for which the “PBM E-score” value is -0.129.
Turning to ACCCTGAA, the “PBM E-score” value is -0.204.
Consider AGCAACGA, for which the “PBM E-score” value was -0.0782.
Then ATTCATGC, with -0.0375; and GTTCGCTA, with -0.082; and GGCAAGAA, with 0.149.
As to GGGGCACA, the “PBM E-score” value was -0.0254.
Turning to GAGCAGGA, the “PBM E-score” value was -0.11.
With GATACGCA the figure was -0.133.
Turning to GTTCTTTA, the “PBM E-score” value was -0.0245.
On to TAAGAACA, for which the “PBM E-score” value came to 0.0187.
Take ACACAGTG: the “PBM E-score” value was -0.0901.
GATCAACC: the “PBM E-score” value is 0.0776.
As for GGCGATAC, the “PBM E-score” value came out at 0.00552.
For the sequence TCGCAAAA, the “PBM E-score” value is -0.122.
With TCGCTCAA, the “PBM E-score” value was -0.0412.
For the sequence CTGGGATA, the “PBM E-score” value is -0.0428.
With AATGATGA, the “PBM E-score” value was -0.0926.
Consider TCGTTTAA, for which the “PBM E-score” value was -0.196.
As to AGAATTTA, the “PBM E-score” value is -0.0683.
For the sequence TCGCGACA, the “PBM E-score” value is -0.193.
With AAGCATGA the figure was -0.151.
For the sequence CTTACCGA, the “PBM E-score” value came to 0.393.
For CCAGGGGA, the “PBM E-score” value was -0.0484.
Consider CCAGTCTC, for which the “PBM E-score” value is -0.129.
With GCCAAGCC, the “PBM E-score” value is -0.0262.
On to CCACCACG, for which the “PBM E-score” value was -0.109.
With AACCTCAC, the “PBM E-score” value is -0.155.
With ATATCATC, the “PBM E-score” value is -0.132.
As to CTAAACCA, the “PBM E-score” value was -0.0531.
For the sequence AATGTGAA, the “PBM E-score” value is -0.11.
Then ACGGATTA, with 0.145.
For ACTGCGCT, the “PBM E-score” value is -0.185.
For the sequence TCGTACCA, the “PBM E-score” value is -0.0932.
AAAGCCTG: the “PBM E-score” value is -0.151.
Then GCGTTGCA, with -0.051; and GCCTCGAA, with -0.0521; and TAGGCCTA, with -0.384.
Then ATAGGGAC, with -0.0117.
As to ACTCTGGA, the “PBM E-score” value was -0.11.
For the sequence CTGAATTC, the “PBM E-score” value was -0.111.
On to CCTAGAAG, for which the “PBM E-score” value is -0.144.
Turning to ATGTTCCA, the “PBM E-score” value was -0.0991.
Consider AGGCTTCA, for which the “PBM E-score” value is -0.112.
For the sequence ACTGGAGG, the “PBM E-score” value is -0.0802.
Take AGATAGTG: the “PBM E-score” value was -0.0913.
Regarding GCTACCAA, the “PBM E-score” value is -0.00579.
For GCCGCGCC, the “PBM E-score” value is 0.0907.
For the sequence AATGATTG, the “PBM E-score” value is -0.164.
With AGGTTCGA, the “PBM E-score” value was -0.0841.
Take ACAAAGCC: the “PBM E-score” value turned out to be 0.0806.
TAAACACA: the “PBM E-score” value is -0.179.
Take AGGATCCG: the “PBM E-score” value was 0.395.
For the sequence ATGTCAAC, the “PBM E-score” value worked out at 0.0147.
As to AGTCGGAA, the “PBM E-score” value is 0.451.
With TCCAGCAA, the “PBM E-score” value was -0.345.
GGGTGACA: the “PBM E-score” value came to 0.156.
With CGGTTTAG, the “PBM E-score” value is 0.239.
AGCAGAAT: the “PBM E-score” value was 0.00856.
Then ATCACGTC, with 0.0144; and AGACTGTA, with -0.207.
On to AATGGTGG, for which the “PBM E-score” value was -0.0674.
ACTGTCGG: the “PBM E-score” value amounted to 0.279.
In the case of AATGAAAA, the “PBM E-score” value amounted to 0.0769.
As to TCCTGAAA, the “PBM E-score” value was -0.044.
On to AGGTTATC, for which the “PBM E-score” value was -0.0973.
Turning to CCGTCCAC, the “PBM E-score” value was 0.143.
CTACGATA: the “PBM E-score” value is -0.175.
Consider GTGGCGCA, for which the “PBM E-score” value was -0.22.
Regarding GCTCTAAA, the “PBM E-score” value was -0.222.
With ATAAAAGA the figure was -0.059; with CCTATTCC, 0.124.
Then GCGTCGGA, with 0.449; and AGATCGGG, with 0.28.
For the sequence CAAGATTC, the “PBM E-score” value was -0.0361.
As for ACGCTTGG, the “PBM E-score” value was -0.214.
Regarding CTGCTTGA, the “PBM E-score” value was -0.213.
With AGATAGAC the figure was -0.188; with GAATCAGA, 0.0234.
In the case of ATATATGC, the “PBM E-score” value came out at 0.13.
As for AGCTAACT, the “PBM E-score” value came out at 0.0148.
In the case of ACAGTATC, the “PBM E-score” value was -0.119.
With GACGGACC the figure was 0.12.
